Source: the supplement of paper PMC10126150
Values marked as one replicate rest on one cluster of the flow cell; about a third of the high ones do not repeat.

system: ATP; assay: switch fluorescence ratio, 500 uM ATP over buffer (Cy3 cluster intensity, sum of 5 cycles each) (fold (ratio)); higher = stronger signal-on switching upon ATP binding; sequences stand for … in TCGTCGGCAGCGTCAGATGTGTATAAGAGACAGTTTTTTTTTTTTTTTTTTTTTTTTT…TC; conditions: aptamer strand: ATP DNA aptamer (quencher-CACCTGGGGGAGTATTGCGGAGGAAGG + anchor), 100 nM annealed; ATP concentration: 500 uM; one replicate
Procedure, shortened: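 The quencher-labelled ATP aptamer, at 100 nM, was annealed to Cy3-labelled switching-strand clusters on a modified Illumina MiSeq flow-cell. The clusters were imaged in selection buffer, then after 15 min with 500 uM ATP at 22 °C, and this buffer/ATP cycle ran five times with NaOH stripping and re-annealing between runs. Per-cluster fluorescence ratios, summed target-cycle over summed buffer-cycle Cy3 intensity, were averaged per switch-domain sequence. Clusters outside 100-1000 RFU were excluded.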
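Further: ATP exposure 15 min at 22 °C before imaging.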

Sequence | switch fluorescence ratio
TTCACTGTCA | 1.07
TTCAGAGTAA | 0.994
TTCAGGATAT | 1.04
TTCAGGGGG | 1.04
TTCAGTCGGT | 1.04
TTCATACTGA | 1.03
TTCATATAAG | 1
TTCATATCTG | 1.04
TTCATCTCTT | 1.01
TTCATGAAGG | 1
TTCATGACTC | 1.06
TTCATGAGAG | 1.01
TTCATGATGG | 1.01
TTCATGCGTG | 1.01
TTCATGTATC | 1.02
TTCATTCAAT | 1.02
TTCATTGGGC | 0.966
TTCCAACATG | 0.992
TTCCAACGGT | 1.01
TTCCACCCTT | 1.02
TTCCAGAACT | 0.987
TTCCAGACGG | 1.03
TTCCAGAGGC | 0.984
TTCCAGGTT | 1.07
TTCCAGTC | 0.968
TTCCATATAG | 1.03

Sequence | switch fluorescence ratio
TTCCATTACG | 1.07
TTCCATTATA | 1.01
TTCCATTGGA | 1.05
TTCCCCAAAC | 1.04
TTCCCGGCGA | 1.48
TTCCGACATG | 1.06
TTCCGATTTT | 1.02
TTCCGCAGTG | 3.38
TTCCGCGCGT | 1.05
TTCCGGTCCA | 1.01
TTCCGGTTGC | 1.53
TTCCGTTCCT | 1.09
TTCCTCAACT | 1.11
TTCCTCGGGC | 1.71
TTCCTGCTTC | 1.84
TTCCTGGCGT | 1.01
TTCCTTAGTT | 0.969
TTCGAAAATC | 1.04
TTCGAAACAT | 1.06
TTCGAAATGC | 3.76
TTCGAACAGG | 1.07
TTCGAACATA | 1
TTCGAAGTCG | 1.04
TTCGAAGTGT | 1
TTCGACACTT | 1.03
TTCGACAGCA | 1.1

Sequence | switch fluorescence ratio
TTCGACCATT | 1.03
TTCGACCTGC | 1.2
TTCGACTAGG | 0.982
TTCGACTTAG | 0.988
TTCGAGAACT | 0.953
TTCGAGCAAC | 3.19
TTCGAGGCGT | 0.967
TTCGAGGGTG | 1.04
TTCGAGTGTG | 1.01
TTCGATGCGA | 1.03
TTCGATTGGC | 1.01
TTCGCCATTT | 1.04
TTCGCCCTCG | 1.02
TTCGCCTAGT | 0.994
TTCGCGACAT | 1.04
TTCGCTAAGC | 1.07
TTCGGAGCTA | 1.29
TTCGGCC | 1
TTCGGCCAGG | 1.19
TTCGGCCGAC | 0.99
TTCGGCCTGT | 0.981
TTCGGCGGAT | 1.01
TTCGGGAGCA | 1.23
TTCGGGGCAC | 0.991
TTCGGTAACG | 1.04
TTCGTAACTA | 1.03

Sequence | switch fluorescence ratio
TTCGTACAGG | 1.05
TTCGTACCAG | 0.98
TTCGTACTCT | 1.02
TTCGTCTTGG | 0.996
TTCGTGAATG | 0.977
TTCGTGCTAT | 1.03
TTCGTTGTAT | 1
TTCGTTTGGC | 1.1
TTCTAAAGCA | 1.11
TTCTAATC | 1.06
TTCTAGGGAT | 0.998
TTCTAGGGGA | 0.977
TTCTAGTATC | 1
TTCTAGTTTA | 1.01
TTCTATGGCC | 1.03
TTCTCAAGGG | 0.999
TTCTCACAGG | 1.01
TTCTCCACG | 1.06
TTCTCCGG | 1.11
TTCTCCGTGT | 1.77
TTCTCTCCTA | 1.03
TTCTCTGTGC | 1.4
TTCTCTTCTG | 1.01
TTCTCTTTCG | 0.993
TTCTGAAACT | 1.05
TTCTGAAATG | 1.01

Sequence | switch fluorescence ratio
TTCTGAGCG | 1.01
TTCTGCCCAG | 1.33
TTCTGGGCGA | 1.04
TTCTGGGTTG | 0.981
TTCTGTAGAT | 0.993
TTCTGTATCG | 1.02
TTCTGTGCGA | 1.25
TTCTGTTTGA | 1.04
TTCTTACATT | 1
TTCTTACCAT | 0.989
TTCTTAGTCG | 1.07
TTCTTATC | 1.02
TTCTTATTTA | 0.997
TTCTTCCAAG | 1.34
TTCTTCCCG | 1.58
TTCTTGCAAA | 1.06
TTCTTGCAGC | 0.99
TTCTTGCATG | 1.11
TTCTTGCGTG | 1
TTCTTGGCGT | 0.993
TTCTTGTAGG | 1.02
TTCTTTACGC | 1.04
TTCTTTTGAA | 0.966
TTGAAAATTT | 0.991
TTGAAATCAT | 0.984
TTGAACATAC | 1.28

Sequence | switch fluorescence ratio
TTGAACTCCG | 1.42
TTGAATCGGC | 1.01
TTGAATCGTT | 1.03
TTGAATGGGA | 2.1
TTGAATTACC | 1.03
TTGACAAGAG | 0.987
TTGACAATCA | 0.972
TTGACATAAA | 0.952
TTGACCCTTA | 1.03
TTGACCTCGA | 1.01
TTGACGACC | 1.21
TTGACGACCG | 1
TTGACGTACA | 1.68
TTGACTCCTA | 1.1
TTGACTTGGC | 0.955
TTGAGAAATC | 1.05
TTGAGACCGC | 1.08
TTGAGAGCTA | 0.973
TTGAGATTC | 0.976
TTGAGCCTAT | 1.02
TTGAGCTGCA | 1.02
TTGAGGAAAT | 1
TTGAGGGT | 0.99
TTGAGTCACT | 0.952
TTGATACAAA | 1.01
TTGATACACC | 1.2

Sequence | switch fluorescence ratio
TTGATCCTGG | 0.99
TTGATCGAAA | 1
TTGATGATGG | 1.01
TTGATGCGAC | 1.11
TTGATGGTGT | 1.02
TTGATGTAA | 0.973
TTGATTATCT | 1.03
TTGATTCCTC | 1.14
TTGATTCGGA | 0.963
TTGATTGTAG | 1
TTGCAATCCA | 2.85
TTGCAATGCG | 2.16
TTGCACAAGA | 0.963
TTGCACATCG | 1.04
TTGCACCAG | 1.05
TTGCAGCAG | 1.27
TTGCATATGG | 0.988
TTGCATCCCT | 0.982
TTGCATGGGG | 1.04
TTGCATGGT | 1.02
TTGCATGTCG | 1.02
TTGCATTGCC | 0.956
TTGCCACAGT | 1.03
TTGCCAGTGC | 1.25
TTGCCAGTTT | 1.04
TTGCCATCGT | 0.968

Sequence | switch fluorescence ratio
TTGCCCCAGT | 1.01
TTGCCCCTAC | 1.1
TTGCCTCCAG | 1.12
TTGCCTTTAG | 0.974
TTGCGAGCTA | 1.06
TTGCGATTTA | 0.971
TTGCGCCG | 1.01
TTGCGCGAAG | 1.02
TTGCGCGTGC | 1.01
TTGCGCTTAA | 1.05
TTGCGCTTGA | 1.06
TTGCGGGAAA | 1.02
TTGCGGTCTC | 1.05
TTGCGTAGG | 1.06
TTGCGTGTAG | 0.97
TTGCGTTAC | 2.62
TTGCGTTCCG | 1.01
TTGCGTTGAA | 1.01
TTGCTAAGGT | 0.983
